Measured values published in publication PMC4336329 (PLoS ONE, 2015).
Out of some 310,000 compounds screened, about 2,200 (0.71%) showed an effect of 50% or more. Effects have a minus sign here. The list shows a part of the results.

These compounds were tested against human ether-à-go-go-related gene (hERG) potassium channel (human, UniProt Q12809) (assay: primary screen, population patch clamp on CHO cells stably expressing hERG).
Chain of human ether-à-go-go-related gene (hERG) potassium channel (Q12809 whole entry, looked up): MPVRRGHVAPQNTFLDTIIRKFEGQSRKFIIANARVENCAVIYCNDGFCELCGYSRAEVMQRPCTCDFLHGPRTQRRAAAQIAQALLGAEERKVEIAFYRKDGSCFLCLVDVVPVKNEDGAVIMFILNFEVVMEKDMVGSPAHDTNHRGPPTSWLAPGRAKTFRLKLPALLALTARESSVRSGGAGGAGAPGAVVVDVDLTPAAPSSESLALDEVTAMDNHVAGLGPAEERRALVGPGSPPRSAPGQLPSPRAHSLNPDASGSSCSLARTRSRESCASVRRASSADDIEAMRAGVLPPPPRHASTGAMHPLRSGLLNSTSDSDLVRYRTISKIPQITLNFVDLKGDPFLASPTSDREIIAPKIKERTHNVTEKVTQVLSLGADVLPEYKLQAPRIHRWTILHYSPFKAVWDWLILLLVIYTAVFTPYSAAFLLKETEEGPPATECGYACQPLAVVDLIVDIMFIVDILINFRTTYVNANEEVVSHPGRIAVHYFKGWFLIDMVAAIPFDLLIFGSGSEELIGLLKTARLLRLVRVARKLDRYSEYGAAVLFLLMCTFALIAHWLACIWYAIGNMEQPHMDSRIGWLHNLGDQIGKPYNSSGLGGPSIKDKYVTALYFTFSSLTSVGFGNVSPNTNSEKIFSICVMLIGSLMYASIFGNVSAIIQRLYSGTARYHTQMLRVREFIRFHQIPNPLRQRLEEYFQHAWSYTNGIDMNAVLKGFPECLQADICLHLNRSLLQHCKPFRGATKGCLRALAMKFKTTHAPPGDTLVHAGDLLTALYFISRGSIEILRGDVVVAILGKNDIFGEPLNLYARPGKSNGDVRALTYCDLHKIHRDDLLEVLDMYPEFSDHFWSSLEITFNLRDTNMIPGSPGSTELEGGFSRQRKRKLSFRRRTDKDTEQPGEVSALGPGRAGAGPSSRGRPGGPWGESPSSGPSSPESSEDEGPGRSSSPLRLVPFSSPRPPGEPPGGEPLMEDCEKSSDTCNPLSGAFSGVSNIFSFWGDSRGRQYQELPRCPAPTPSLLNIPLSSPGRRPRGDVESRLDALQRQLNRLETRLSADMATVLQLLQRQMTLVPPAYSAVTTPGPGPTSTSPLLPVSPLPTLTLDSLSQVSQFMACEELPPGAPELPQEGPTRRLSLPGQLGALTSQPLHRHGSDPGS

Row | SMILES | hERG current change (%, negative = inhibition) at 1uM
1 | CN(C)S(=O)(=O)c1cccc(NC(=S)NCCc2ccccn2)c1 | 16.5%
2 | CCOc1ccccc1C(=O)OCC(=O)Nc1ccc(N2CCCCC2)cc1 | 0.518%
3 | CCN1CCN(c2nnc(-c3ccccc3)c3ccccc23)CC1 | 0.672%
4 | CCOC(=O)c1ccc(NS(=O)(=O)c2c(C)n(C)c(=O)n(C)c2=O)cc1 | 13.7%
5 | O=C(NCc1cccnc1)c1ccccc1CCc1ccccc1 | -0.454%
6 | CCOc1ccc(CCNC(=O)COC(=O)/C=C/c2ccc(OC(F)F)c(OC)c2)cc1OCC | 3.29%
7 | CC(=O)c1sc2nc(C)cc(C)c2c1N | 1.22%
8 | COc1ccc(C(CC(=O)O)NC(=O)c2ccccc2[N+](=O)[O-])cc1 (stereo not drawn) | 15.3%
9 | COc1ccc(C(=O)N/N=C/c2ccc(SC)cc2)cc1 | 8.54%
10 | CCCCNC(=S)N(CCCN(C)C)Cc1cc2cc3c(cc2[nH]c1=O)OCO3 | 5.16%
11 | CC(=O)C(Sc1ccc2nnc(-c3ccc(C)cc3)n2n1)C(C)=O | 7.24%
12 | Cc1nc(=O)c(-c2ccccc2)c(C)n1CC1CCCO1 (stereo not drawn) | 0.813%
13 | Cc1cccn2c(CN(C)CC3CCCCO3)c(C(=O)N3CCCCC3)nc12 (stereo not drawn) | 11.6%
14 | CCOC(=O)c1ccc(NC(=O)C(=O)NCc2ccccn2)cc1 | 12.8%
15 | COCCN(C(=O)Cc1cccs1)c1nnc(-c2ccncc2)s1 | 7.57%
16 | COc1ccc(OC)c(Nc2cc(-c3ccccc3)nc(N)n2)c1 | 3.31%
17 | NC(=O)CC(NC(=O)Cc1cccc2ccccc12)c1ccc(N2CCN(c3ccc(F)cc3)CC2)c([N+](=O)[O-])c1 (stereo not drawn) | 14.2%
18 | COc1ccc(-n2c(C)cc(/C=C3/SC(=S)N(C)C3=O)c2C)cc1 | 17%
19 | Nc1cc(C(=O)OCC(=O)NNC(=O)c2cccs2)ccc1Cl | 13.5%

Row | SMILES | hERG current change (%, negative = inhibition) at 1uM
20 | CCC(=O)Nc1cc(=O)[nH]c2nc(-c3ccc(Cl)cc3)nn12 | 19.5%
21 | CC1(C(=O)O)C=CC2(CCCCC2)N1C(=O)c1ccccc1 (stereo not drawn) | 13.7%
22 | Cc1ccc(-c2nnc(N)o2)cc1 | 15.1%
23 | O=C(NCCOc1ccccc1)c1ccccc1SCC(=O)N1CCCC1 | 18.2%
24 | O=C(Nc1nccs1)C1CC(=O)N(CCc2ccc(F)cc2)C1 (stereo not drawn) | 9.8%
25 | CN1CCN(C(=O)COc2ccc3ccccc3c2)CC1 | 10.7%
26 | COc1ccc(-c2c(C#Cc3ccsc3)c3ccccc3n2C)cc1 | 13.2%
27 | COc1ccc(CN2C(=O)c3cccnc3C2=O)cc1S(=O)(=O)N(C)c1ccc(C)cc1 | 15.8%
28 | O=C(NC1CCCC1)C1CC(=O)N(C2CCCCCCC2)C1 (stereo not drawn) | 6.02%
29 | CCOC(=O)C(=O)c1cn(C2OCC(OC(C)=O)C(OC(C)=O)C2OC(C)=O)c2ccccc12 (stereo not drawn) | 14.9%
30 | CSc1ccc(CNCc2ccc3c(c2)OCO3)cc1.O=C(O)C(=O)O | 6.18%
31 | CCOc1ccccc1C(=O)N(Cc1ccc(C)o1)C1CCS(=O)(=O)C1 (stereo not drawn) | 12.3%
32 | Cc1c(NC(=O)C2CCCN2S(=O)(=O)c2ccccc2)c(=O)n(-c2ccccc2)n1C (stereo not drawn) | 15.5%
33 | CC12CC3(C)CC(C)(C1)CC(C(=O)Nc1nn[nH]n1)(C2)C3 | 9.23%
34 | CN(C)c1nc(C(=O)Nc2ccccc2)nc(N(C)C)n1 | 12%
35 | Fc1cccc(/C=N/N=C/c2cccc(F)c2)c1.O | 16.7%
36 | COc1ccc(-c2csc(NC(=O)c3ccccc3NS(=O)(=O)c3ccc(C)cc3)n2)cc1 | 6.88%
37 | O=C(N/N=C/c1ccco1)c1cc(-c2cccc(Br)c2)nc2ccccc12 | 11.2%
38 | Cc1oc(C(C)(C)C)cc1C(=O)N1CCN(C(c2ccccc2)c2ccccc2)CC1 | 5.55%

Row | SMILES | hERG current change (%, negative = inhibition) at 1uM
39 | CCOc1ccc(/C(O)=C2/C(=O)C(=O)N(c3ccccn3)C2c2ccc(F)cc2)c(C)c1 (stereo not drawn) | 8.25%
40 | CC(C)CC(=O)NC(=S)Nc1sc2c(c1C(N)=O)CCC2 | 10.9%
41 | CCCCC/C=C/C1=CC(=O)C[C@H](c2ccc(OC)c(OC)c2)C1 | 9.99%
42 | CC1(C)CN(c2ccccc2)N(C(=O)c2ccc(C#N)cc2)C1=O | -20%
43 | CC(C)(CNC(=O)Cc1ccc(Br)cc1)N1CCOCC1 | 16.3%
44 | C=CCNC(=O)CN1CCC(NC(=O)c2ccco2)CC1 | 2.47%
45 | CCCCCC(=O)Nc1ccc(-c2csc(C)n2)cc1 | 13.6%
46 | O=C(O)CC(c1ccc(Cl)cc1)n1cccc1 (stereo not drawn) | 4.8%
47 | COc1ccc(/C=C/C(=O)N(CC(C)C)C2CCS(=O)(=O)C2)cc1 (stereo not drawn) | 6.56%
48 | CCOc1ccc(S(=O)(=O)NCc2ccccn2)cc1NC(=O)c1ccccc1F | 15.7%
49 | CCO[C@H]1OC(C(=O)N2CCN(C)CC2)=C[C@@H](c2ccc3c(c2)OCO3)[C@@H]1CCCO | -2.6%
50 | CC1=NN(c2ccc(C)cc2C)C(=O)C1C(c1ccccc1O)C1C(=O)N(c2ccc(C)cc2C)N=C1C (stereo not drawn) | 18.7%
51 | CCN(CC)c1ccc(/C=N/NC(=O)OC(C)(C)C)cc1 | 13.1%
52 | COc1cc2ncnc(NCc3ccc(C)o3)c2cc1OC | 10.2%
53 | Cc1cc(C(=O)OCC(=O)N2CCOCC2)ccc1[N+](=O)[O-] | 14.5%
54 | COc1ccc(C(=O)NNC(=S)NC(=O)c2cccnc2)cc1 | 7.27%
55 | CC(C)(C)SCCNC(=O)COc1ccccc1 | 10%
56 | O=C(N/N=C/c1ccc(O)cc1)c1cc(-c2ccccc2)nc2ccccc12 | 11.1%
57 | CCCCCC(=O)OC(CN1CCCCC1)CN1CCCC1=O.Cl (stereo not drawn) | 7.03%
